Test results from PubChem BioAssay AID504466 (National Center for Advancing Translational Sciences (NCATS), 2011).
The whole screen tested about 330,000 compounds, of which about 4,200 (1.3%) were called active. Inconclusive results, whose numbers are uncertain, are shown with a selection of clear calls. Calls follow the shape of the dose curve; as a rule, active = well fitted activation curve with a large enough effect; inconclusive = small, poorly fitted or top-dose-only effect; inactive = no such curve, though single readings can be large or run the other way. Potencies of inconclusive entries are doubtful fits and often do not repeat.
Potency is read from the fitted curve at half-maximal effect; tags tell the direction and shape of the fitted curve.

Test: qHTS screen for small molecules that induce genotoxicity in human embryonic kidney (HEK293T) cells expressing luciferase-tagged ELG1; also: nearly all actives have a fitted effect of over 60% in size
Settings: HEK293T ELG1-luciferase reporter, luminescence, 16 h; series mostly up to 46 µM
Method in brief: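 Reporter readout depends on ELG1 protein level, which increases with genetic stress. After 16 hr compound exposure at 37 °C, luciferase activity was quantified using ONE-Glo.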
With `COc1cc(OC)c2c(-c3cccc(-c4ccc(OC)c(F)c4)c3)cc(=O)oc2c1` the Potency was inconclusive: 1.64 µM [activator, full curve]. With `O=C(c1ccco1)n1nc(-c2ccccc2)nc1SCc1ccccc1` the Potency was inconclusive: 16.4 µM [activator, partial curve]. With `COc1ccc(C(=O)Nn2c(SCC(=O)c3ccccc3)nc3ccccc3c2=O)cc1` the Potency was inconclusive: 0.326 µM [activator, full curve, poor fit]. For `CCN1C(=O)/C(=C/C=C2\C=CN(CC)c3ccccc32)SC1=S`, the Potency was inconclusive: 4.11 µM [activator, full curve, poor fit]. With `CN=C(C)c1c(O)c2ccccc2oc1=O` the Potency was inconclusive: 25.9 µM [activator, single point]. For `COCCCN1C(=O)c2ccc(C(=O)Nc3cccc(OC)c3)cc2C1=O`, the Potency was inconclusive: 20.6 µM [activator, partial curve, poor fit]. For `Cc1ccc(CSc2n[nH]c(N)n2)cc1`, the Potency was “inactive”. With `COc1ccc(-c2noc(Cc3cccs3)n2)cc1` the Potency was inconclusive: 8.2 µM [activator, partial curve]. For `Cc1cc(NC(=O)c2ccoc2C)ccc1Br`, the Potency was inconclusive: 9.2 µM [activator, partial curve]. For `O=C(c1sc2ccccc2c1Cl)N1CCN(c2ccc(F)cc2)CC1`, the Potency was “inactive”. For `O=C(OCc1nnc(-c2ccccc2)o1)C12CC3CC(CC(Br)(C3)C1)C2`, the Potency was inconclusive: 20.6 µM [activator, partial curve, poor fit]. For `CN(CC(=O)Nc1cccc(F)c1)C(=O)COc1cccc2c1OC(C)(C)C2`, the Potency was “inactive”. With `O=C(CCc1ccccc1)Nc1ccccc1[N+](=O)[O-]` the Potency was inconclusive: 25.9 µM [activator, partial curve, poor fit]. With `O=C(O)COc1ccccc1/C=N/NC(=O)c1cc(-c2ccccc2)nc2ccccc12` the Potency was “inactive”. In the case of `CCCc1ccc2oc(C(=O)N3CCCC3)c(C)c2c1`, the Potency is reported as inconclusive: 18.3 µM [activator, single point]. For `O=C(Nc1ccc(F)c(Cl)c1)N1CCCCCC1`, the Potency was inconclusive: 18.3 µM [activator, partial curve, poor fit]. In the case of `O=C(Nc1ccc(N2CCCCC2)cc1)c1ccc([N+](=O)[O-])o1`, the Potency is reported as active: 6.51 µM. For `CSc1ccc(/C=N/n2nnnc2N)cc1`, the Potency was inconclusive: 16.4 µM [activator, partial curve]. In the case of `CCOC(=O)c1c(C)[nH]c(C(=O)COC(=O)CCSc2ccccc2)c1C`, the Potency is reported as inconclusive: 25.9 µM [activator, partial curve, poor fit]. With `CN(C(=O)c1cccc(S(=O)(=O)N2CCOCC2)c1)c1c(N)n(Cc2ccccc2)c(=O)[nH]c1=O` the Potency was “inactive”. In the case of `COc1ccc(-c2cc3ccccc3oc2=O)cc1NC(=O)c1cccnc1`, the Potency is reported as “inactive”. For `N=c1oc2cc(O)ccc2cc1C(=O)Nc1ccc(Br)cc1`, the Potency was “inactive”. In the case of `C=CCC1(CC=C)CCCN1C(=O)CC1C(=O)NCCN1Cc1ccccc1OC` (stereo unspecified), the Potency is reported as inconclusive: 29.1 µM [activator, partial curve, poor fit]. In the case of `CC(C)(C)c1nn(-c2ccccc2)c2[nH]c(=O)c(CNc3ccc4c(c3)OCCO4)cc12`, the Potency is reported as inconclusive: 29.1 µM [activator, single point]. For `Oc1ccccc1/C=N/Nc1cccc2cccnc12`, the Potency was inconclusive: 1.64 µM [activator, full curve, poor fit]. With `O=C(Nc1ccc2nsnc2c1)N1CCCCC1` the Potency was inconclusive: 20.6 µM [activator, partial curve, poor fit]. In the case of `COc1ccc(-c2cc(-c3cccs3)c(C#N)c(SCC(=O)NCc3ccco3)n2)cc1`, the Potency is reported as inconclusive: 16.4 µM [activator, single point]. In the case of `O=C(Cc1ccc(-c2ccccc2)cc1)Nc1ccccn1`, the Potency is reported as inconclusive: 20.6 µM [activator, single point]. With `COc1cc(OC)cc(-c2cc3ccc(OC)cc3cn2)c1` the Potency was inconclusive: 2.31 µM [activator, partial curve]. For `Cc1cc(C)n(-c2nc(-c3cccc(Cl)c3)cs2)n1`, the Potency was inconclusive: 23.1 µM [activator, partial curve, poor fit]. For `c1ccn(-c2ccc(-c3ccn[nH]3)cc2)c1`, the Potency was “inactive”. For `CCOC(=O)c1sc(NC(=O)Nc2ccccc2F)nc1C`, the Potency was active: 0.259 µM. With `CCOC(=O)c1cnc(-n2nc(C)cc2C)nc1N(C)C` the Potency was inconclusive: 10.3 µM [activator, partial curve, poor fit]. With `COC(=O)Cc1ccc(NC(=O)c2ccc(C(C)(C)C)cc2)cc1` the Potency was “inactive”. With `Cc1cnc(C(=O)Nc2ccc(N3CCOCC3)cc2)cn1` the Potency was inconclusive: 18.4 µM [activator, partial curve, poor fit]. For `Cc1ccc2nc(-c3ccc(NC(=O)COCC(=O)O)cc3)sc2c1`, the Potency was inconclusive: 16.4 µM [activator, single point]. In the case of `O=C(OCC(=O)N1CCc2ccccc2C1)c1cccnc1Cl`, the Potency is reported as inconclusive: 16.4 µM [activator, partial curve, poor fit]. For `COc1ccc(-c2cc3c(=O)n(CC(=O)NCc4ccc(F)cc4)ncn3n2)cc1`, the Potency was inconclusive: 5.17 µM [activator, partial curve]. For `COCCn1c(C)cc(C2=NNC(=Nc3ccc(F)cc3)SC2)c1C`, the Potency was inconclusive: 2.06 µM [activator, full curve, poor fit]. For `CCOC(=O)c1c(NC(C)=O)sc2c(OCC(O)CN(CC)CC)c(Br)ccc12` (stereo unspecified), the Potency was inconclusive: 20.6 µM [activator, single point]. With `Cc1cc(C(=O)CSc2nnc(C3COc4ccccc4O3)n2C)c(C)n1-c1ccc(F)cc1` (stereo unspecified) the Potency was “inactive”. With `CCOC(=S)SCC(=O)Nc1nc(-c2ccc(Br)cc2)cs1` the Potency was inconclusive: 16.4 µM [activator, single point]. For `Cc1cc(/C=C2\SC(=S)NC2=O)c(C)n1-c1cccc(O)c1`, the Potency was inconclusive: 9.2 µM [activator, partial curve]. In the case of `Cc1ccsc1C(=O)N1CCN(C(=O)c2ccco2)CC1`, the Potency is reported as “inactive”. For `O=C(N/C(=C/c1ccccc1F)C(=O)N1CCCCC1)c1ccccc1`, the Potency was “inactive”. For `O=C(COC(=O)c1nc(Cl)ccc1Cl)NC1CCCCC1`, the Potency was “inactive”. In the case of `CN=Cc1cc(-c2ccccc2)sc1O`, the Potency is reported as inconclusive: 11.6 µM [activator, partial curve]. With `O=C(COc1ccccc1C(=O)Nc1ccccc1)c1ccc(F)cc1` the Potency was “inactive”. For `C/C(=N\Nc1ccc(Cl)c(C(=O)O)c1)c1cc2ccccc2o1`, the Potency was inconclusive: 29.1 µM [activator, single point]. With `O=C1N(Cc2cccnc2)C[C@@H]2C[C@@H](c3cccc(OC4CCCC4)c3)N3CCC[C@@]123` the Potency was “inactive”. With `CCOc1cccc(CN2CCCC(N3CCN(c4cccc(Cl)c4)CC3)C2)c1O` (stereo unspecified) the Potency was “inactive”. With `CCNc1ccc(C2(O)C(=O)c3ccccc3C2=O)cc1` the Potency was “inactive”. For `Nc1ccccc1SCC(=O)Nc1ccc2c(c1)OCCO2`, the Potency was inconclusive: 13 µM [activator, partial curve]. In the case of `Cc1cc(C(=O)COC(=O)c2ccc3c(c2)OCO3)c(C)n1Cc1cccs1`, the Potency is reported as active: 23.1 µM. For `Cc1cc(C(=O)COC(=O)CNC(=O)c2ccc(F)cc2)c(C)n1Cc1ccco1`, the Potency was inconclusive: 20.6 µM [activator, single point]. In the case of `COc1cccc(CN(C)C(=O)COc2ccc(C(=O)c3ccc(Cl)cc3)cc2)c1OC`, the Potency is reported as “inactive”. In the case of `C/C(=N\NC(=O)c1cccc(Br)c1)c1ccccn1`, the Potency is reported as inconclusive: 5.17 µM [activator, single point]. In the case of `COc1ccc(C(=O)CC(=O)C(=O)Nc2ccc([N+](=O)[O-])cc2C)cc1`, the Potency is reported as inconclusive: 29.1 µM [activator, single point]. In the case of `CCNC(=O)NC(=O)COC(=O)c1cccc(S(=O)(=O)N2CC3(C)CC2CC(C)(C)C3)c1` (stereo unspecified), the Potency is reported as inconclusive: 29.1 µM [activator, single point]. For `Cc1cc(C(=O)OCC(=O)Nc2cc(S(=O)(=O)N(C)C)ccc2Cl)c2ccccc2n1`, the Potency was “inactive”. With `Cc1ccc(/C=C/C(=O)Nc2ccc([N+](=O)[O-])cc2)o1` the Potency was “inactive”. For `O=C(/C=C\Nc1ccccc1Br)c1ccc2c(c1)OCO2`, the Potency was inconclusive: 1.03 µM [activator, single point]. With `CC1=C(C(=O)Nc2ccccc2F)C(c2ccsc2)C2=C(CC(C)(C)CC2=O)N1` (stereo unspecified) the Potency was “inactive”. In the case of `O=c1[nH]c2ccccc2nc1/C=C/c1ccc(O)cc1`, the Potency is reported as inconclusive: 14.6 µM [activator, partial curve]. With `Nc1ccccc1C(=O)NNc1c2ccccc2nc2ccccc12` the Potency was “inactive”. For `O=C(N/C=N/O)C1=NOC(CNc2ncc(C(F)(F)F)cc2Cl)C1` (stereo unspecified), the Potency was inconclusive: 25.9 µM [activator, partial curve, poor fit]. In the case of `O=C(CCN1C(=O)c2ccccc2C1=O)N1CCC(c2ccccc2)C1` (stereo unspecified), the Potency is reported as inconclusive: 25.9 µM [activator, partial curve, poor fit]. In the case of `COc1ccc(C(=O)COC(=O)c2nn(C)cc2Cl)cc1`, the Potency is reported as inconclusive: 20.6 µM [activator, single point]. With `COc1cccc(-c2nc3ccc([N+](=O)[O-])cc3o2)c1` the Potency was inconclusive: 2.59 µM [activator, full curve]. In the case of `COC(=O)c1ccc(CON2C(=O)c3ccccc3C2=O)cc1`, the Potency is reported as inconclusive: 23.1 µM [activator, partial curve, poor fit]. In the case of `O=C(COc1ccc(Cl)cc1)Nc1cccc(-c2ccc(N3CCOCC3)nn2)c1`, the Potency is reported as active: 2.06 µM.
